This assay addresses N-terminal truncated recombinant human PDE7B enzyme (Homo sapiens (Human), UniProt Q9NP56). Nature of the assay: biochemical.
As to `O=C1Nc2c(Cl)cc3cc(C(=O)NCCN4CCc5ccccc54)oc3c2C2(CCCCC2)N1` [Example 293, 5′-Chloro-N-[2-(2,3-dihydro-1H-indol-1-yl)ethyl]-7′-oxo-7′,8′-dihydro-6′H-spiro[cyclohexane-1,9′-furo[2,3-f]quinazoline]-2′-carboxamide], the half-inhibitory concentration (IC50) – broadly, the point on the concentration scale where inhibition reaches its midpoint – lay in the range of 100 to 1000 nM.
In the case of `COc1cccc(CNC(=O)c2cc3cc(Cl)c4c(c3o2)C2(CCCCC2)NC(=O)N4)c1OC` [Example 294, 5′-Chloro-N-[(2,3-dimethoxyphenyl)methyl]-7′-oxo-7′,8′-dihydro-6′H-spiro[cyclohexane-1,9′-furo[2,3-f]quinazoline]-2′-carboxamide], the IC50 lay in the range of 10 to 100 nM.
The value for `Cc1ccc2[nH]c(CN(C)C(=O)c3cc4cc(Cl)c5c(c4o3)C3(CCCCC3)NC(=O)N5)nc2c1` [Example 295, 5′-Chloro-N-methyl-N-[(5-methyl-1H-1,3-benzodiazol-2-yl)methyl]-7′-oxo-7′,8′-dihydro-6′H-spiro[cyclohexane-1,9′-furo[2,3-f]quinazoline]-2′-carboxamide] was 10 to 100 nM.
Consider `Cc1nn(C)c(C)c1CCCN(C)C(=O)c1cc2cc(Cl)c3c(c2o1)C1(CCCCC1)NC(=O)N3` [Example 296, 5′-Chloro-N-methyl-7′-oxo-N-[3-(trimethyl-1H-pyrazol-4-yl)propyl]-7′,8′-dihydro-6′H-spiro[cyclohexane-1,9′-furo[2,3-f]quinazoline]-2′-carboxamide], for which the IC50 was 10 to 100 nM.
With `O=C1Nc2c(Cl)cc3cc(C(=O)N4CCN5CCCC5C4)oc3c2C2(CCCCC2)N1` (centres unmarked) [Example 297, 5′-Chloro-2′-{octahydropyrrolo[1,2-a]piperazine-2-carbonyl}-7′,8′-dihydro-6′H-spiro[cyclohexane-1,9′-furo[2,3-f]quinazoline]-7′-one], the IC50 was in the range of 10 to 100 nM.
Then `O=C1Nc2c(Cl)cc3cc(C(=O)NCc4ccc5c(c4)OCCO5)oc3c2C2(CCCCC2)N1` [Example 298, 5′-Chloro-N-(2,3-dihydro-1,4-benzodioxin-6-ylmethyl)-7′-oxo-7′,8′-dihydro-6′H-spiro[cyclohexane-1,9′-furo[2,3-f]quinazoline]-2′-carboxamide], with 100 to 1000 nM; and `CN(Cc1cc(C2CC2)[nH]n1)C(=O)c1cc2cc(Cl)c3c(c2o1)C1(CCCCC1)NC(=O)N3` [Example 299, 5′-Chloro-N-[(5-cyclopropyl-1H-pyrazol-3-yl)methyl]-N-methyl-7′-oxo-7′,8′-dihydro-6′H-spiro[cyclohexane-1,9′-furo[2,3-f]quinazoline]-2′-carboxamide], with 10 to 100 nM.
Then `COc1ccc(CNC(=O)c2cc3cc(Cl)c4c(c3o2)C2(CCCCC2)NC(=O)N4)c(OC)c1` [Example 300, 5′-Chloro-N-[(2,4-dimethoxyphenyl)methyl]-7′-oxo-7′,8′-dihydro-6′H-spiro[cyclohexane-1,9′-furo[2,3-f]quinazoline]-2′-carboxamide], with 100 to 1000 nM; and `O=C1Nc2c(Cl)cc3cc(C(=O)NC4CCN(Cc5ccccc5)C4)oc3c2C2(CCCCC2)N1` (centres unmarked) [Example 301, N-(1-benzylpyrrolidin-3-yl)-5′-chloro-7′-oxo-7′,8′-dihydro-6′H-spiro[cyclohexane-1,9′-furo[2,3-f]quinazoline]-2′-carboxamide], with 10 to 100 nM; and `COc1ccc(CNC(=O)c2cc3cc(Cl)c4c(c3o2)C2(CCCCC2)NC(=O)N4)c(F)c1F` [Example 302, 5′-Chloro-N-[(2,3-difluoro-4-methoxyphenyl)methyl]-7′-oxo-7′,8′-dihydro-6′H-spiro[cyclohexane-1,9′-furo[2,3-f]quinazoline]-2′-carboxamide], with 100 to 1000 nM.
The value for `CN(C)c1ccc(CNC(=O)c2cc3cc(Cl)c4c(c3o2)C2(CCCCC2)NC(=O)N4)cc1` [Example 303, 5′-Chloro-N-{[4-(dimethylamino)phenyl]methyl}-7′-oxo-7′,8′-dihydro-6′H-spiro[cyclohexane-1,9′-furo[2,3-f]quinazoline]-2′-carboxamide] was 10 to 100 nM.
For `CC(C)N(Cc1nccn1C)C(=O)c1cc2cc(Cl)c3c(c2o1)C1(CCCCC1)NC(=O)N3` [Example 304, 5′-Chloro-N-[(1-methyl-1H-imidazol-2-yl)methyl]-7′-oxo-N-(propan-2-yl)-7′,8′-dihydro-6′H-spiro[cyclohexane-1,9′-furo[2,3-f]quinazoline]-2′-carboxamide], the concentration for half-maximal inhibition (IC50) is 10 to 100 nM.
For `O=C1Nc2c(Cl)cc3cc(C(=O)N4CCN(c5ccncc5)CC4)oc3c2C2(CCCCC2)N1` [Example 305, 5′-Chloro-2′-[4-(pyridin-4-yl)piperazine-1-carbonyl]-7′,8′-dihydro-6′H-spiro[cyclohexane-1,9′-furo[2,3-f]quinazoline]-7′-one], the IC50 lay in the range of 100 to 1000 nM.
The value for `CN(Cc1cc(C(C)(C)C)[nH]n1)C(=O)c1cc2cc(Cl)c3c(c2o1)C1(CCCCC1)NC(=O)N3` [Example 306, N-[(5-tert-Butyl-1H-pyrazol-3-yl)methyl]-5′-chloro-N-methyl-7′-oxo-7′,8′-dihydro-6′H-spiro[cyclohexane-1,9′-furo[2,3-f]quinazoline]-2′-carboxamide] was 10 to 100 nM.
The value for `O=C1Nc2c(Cl)cc3cc(C(=O)N4CCN(Cc5ccccc5)CC4)oc3c2C2(CCCCC2)N1` [Example 307, 2′-(4-Benzylpiperazine-1-carbonyl)-5′-chloro-7′,8′-dihydro-6′H-spiro[cyclohexane-1,9′-furo[2,3-f]quinazoline]-7′-one] was 10 to 100 nM.
Take `CN1CCC(CNC(=O)c2cc3cc(Cl)c4c(c3o2)C2(CCCCC2)NC(=O)N4)CC1` [Example 308, 5′-Chloro-N-[(1-methylpiperidin-4-yl)methyl]-7′-oxo-7′,8′-dihydro-6′H-spiro[cyclohexane-1,9′-furo[2,3-f]quinazoline]-2′-carboxamide]: the IC50 was 100 to 1000 nM.
The value for `COC1CCCN(C(=O)c2cc3cc(Cl)c4c(c3o2)C2(CCCCC2)NC(=O)N4)C1` (centres unmarked) [Example 309, 5′-Chloro-2′-(3-methoxypiperidine-1-carbonyl)-7′,8′-dihydro-6′H-spiro[cyclohexane-1,9′-furo[2,3-f]quinazoline]-7′-one] was 10 to 100 nM; that for `Cc1nn(C)c(C)c1CN(C)C(=O)c1cc2cc(Cl)c3c(c2o1)C1(CCCCC1)NC(=O)N3` [Example 310, 5′-Chloro-N-methyl-7′-oxo-N-[(trimethyl-1H-pyrazol-4-yl)methyl]-7′,8′-dihydro-6′H-spiro[cyclohexane-1,9′-furo[2,3-f]quinazoline]-2′-carboxamide] was 10 to 100 nM.
Regarding `O=C1Nc2c(Cl)cc3cc(C(=O)N4CCN(c5ccccn5)CC4)oc3c2C2(CCCCC2)N1` [Example 311, 5′-Chloro-2′-[4-(pyridin-2-yl)piperazine-1-carbonyl]-7′,8′-dihydro-6′H-spiro[cyclohexane-1,9′-furo[2,3-f]quinazoline]-7′-one], the IC50 lay within 10 to 100 nM.
In the case of `Cc1cc(C)n(CCCN(C)C(=O)c2cc3cc(Cl)c4c(c3o2)C2(CCCCC2)NC(=O)N4)n1` [Example 312, 5′-Chloro-N-[3-(3,5-dimethyl-1H-pyrazol-1-yl)propyl]-N-methyl-7′-oxo-7′,8′-dihydro-6′H-spiro[cyclohexane-1,9′-furo[2,3-f]quinazoline]-2′-carboxamide], the IC50 is 10 to 100 nM.
Then `CN1CCN(C(=O)c2cc3cc(Cl)c4c(c3o2)C2(CCCCC2)NC(=O)N4)C(c2ccccc2)C1` (centres unmarked) [Example 313, 5′-Chloro-2′-(4-methyl-2-phenylpiperazine-1-carbonyl)-7′,8′-dihydro-6′H-spiro[cyclohexane-1,9′-furo[2,3-f]quinazoline]-7′-one], with 10 to 100 nM; and `CN(C)C1CCCN(C(=O)c2cc3cc(Cl)c4c(c3o2)C2(CCCCC2)NC(=O)N4)C1` (centres unmarked) [Example 314, 5′-Chloro-2′-[3-(dimethylamino)piperidine-1-carbonyl]-7′,8′-dihydro-6′H-spiro[cyclohexane-1,9′-furo[2,3-f]quinazoline]-7′-one], with 100 to 1000 nM; and `O=C1Nc2c(Cl)cc3cc(C(=O)NCCN4CCOCC4)oc3c2C2(CCCCC2)N1` [Example 315, 5′-Chloro-N-[2-(morpholin-4-yl)ethyl]-7′-oxo-7′,8′-dihydro-6′H-spiro[cyclohexane-1,9′-furo[2,3-f]quinazoline]-2′-carboxamide], with 100 to 1000 nM.
Then `O=C1Nc2c(Cl)cc3cc(C(=O)NCCOc4cccnc4)oc3c2C2(CCCCC2)N1` [Example 316, 5′-Chloro-7′-oxo-N-[2-(pyridin-3-yloxy)ethyl]-7′,8′-dihydro-6′H-spiro[cyclohexane-1,9′-furo[2,3-f]quinazoline]-2′-carboxamide], with 10 to 100 nM.
Then `COc1ccc(CNC(=O)c2cc3cc(Cl)c4c(c3o2)C2(CCCCC2)NC(=O)N4)c(F)c1` [Example 317, 5′-Chloro-N-[(2-fluoro-4-methoxyphenyl)methyl]-7′-oxo-7′,8′-dihydro-6′H-spiro[cyclohexane-1,9′-furo[2,3-f]quinazoline]-2′-carboxamide], with 10 to 100 nM; and `N#CC1CN(C(=O)c2cc3cc(Cl)c4c(c3o2)C2(CCCCC2)NC(=O)N4)C1` [Example 318, 1-({5′-Chloro-7′-oxo-7′,8′-dihydro-6′H-spiro[cyclohexane-1,9′-furo[2,3-f]quinazoline]-2′-yl}carbonyl)azetidine-3-carbonitrile], with 100 to 1000 nM.
As for `O=C1Nc2c(Cl)cc3cc(C(=O)N4CCn5c(-c6ccccc6)cnc5C4)oc3c2C2(CCCCC2)N1` [Example 319, 5′-Chloro-2′-{3-phenyl-5H,6H,7H,8H-imidazo[1,2-a]pyrazine-7-carbonyl}-7′,8′-dihydro-6′H-spiro[cyclohexane-1,9′-furo[2,3-f]quinazoline]-7′-one], the IC50 was 10 to 100 nM.
Then `O=C1Nc2c(Cl)cc3cc(C(=O)NCCN4CCCC4=O)oc3c2C2(CCCCC2)N1` [Example 320, 5′-Chloro-7′-oxo-N-[2-(2-oxopyrrolidin-1-yl)ethyl]-7′,8′-dihydro-6′H-spiro[cyclohexane-1,9′-furo[2,3-f]quinazoline]-2′-carboxamide], with 10 to 100 nM; and `CC1(C)CC(NC(=O)c2cc3cc(Cl)c4c(c3o2)C2(CCCCC2)NC(=O)N4)CC(C)(C)O1` [Example 321, 5′-Chloro-7′-oxo-N-(2,2,6,6-tetramethyloxan-4-yl)-7′,8′-dihydro-6′H-spiro[cyclohexane-1,9′-furo[2,3-f]quinazoline]-2′-carboxamide], with 10 to 100 nM.

The values are drawn from patent US11685745B2, “Substituted benzoxazole and benzofuran compounds as PDE7 inhibitors” (Dart NeuroScience, LLC, priority 2017, dated 2023).
